Assay results taken from PubChem BioAssay AID588591 (National Center for Advancing Translational Sciences (NCATS), 2011).
Out of some 390,000 compounds screened, about 4,700 (1.2%) were called active. The inconclusive results got no clear call from the source; some entries with a clear call stand among them for comparison. The call rests on the fitted dose curve; in most records, active means well fitted inhibition curve with a large enough effect; inconclusive means small, poorly fitted or top-dose-only effect, or another doubt; inactive means no such curve, though single readings can be large or run the other way. Where the call is inconclusive, the potency comes from a doubtful curve fit.
On the % scale 0 is the no-effect control and ±100 the full control effect; potency means the concentration at half of the fitted maximal effect; tags describe the fitted curve by direction and shape.

The compounds below were run against DNA polymerase eta (Homo sapiens) (UniProt Q9Y253) (assay: qHTS for Inhibitors of Polymerase Eta). Conditions: recombinant Pol eta, fluorescent DNA replication assay; series mostly up to 114 µM; activity change, negative = inhibition: at the top concentration.
Sequence of UniProt Q9Y253 (Q9Y253 whole entry, looked up): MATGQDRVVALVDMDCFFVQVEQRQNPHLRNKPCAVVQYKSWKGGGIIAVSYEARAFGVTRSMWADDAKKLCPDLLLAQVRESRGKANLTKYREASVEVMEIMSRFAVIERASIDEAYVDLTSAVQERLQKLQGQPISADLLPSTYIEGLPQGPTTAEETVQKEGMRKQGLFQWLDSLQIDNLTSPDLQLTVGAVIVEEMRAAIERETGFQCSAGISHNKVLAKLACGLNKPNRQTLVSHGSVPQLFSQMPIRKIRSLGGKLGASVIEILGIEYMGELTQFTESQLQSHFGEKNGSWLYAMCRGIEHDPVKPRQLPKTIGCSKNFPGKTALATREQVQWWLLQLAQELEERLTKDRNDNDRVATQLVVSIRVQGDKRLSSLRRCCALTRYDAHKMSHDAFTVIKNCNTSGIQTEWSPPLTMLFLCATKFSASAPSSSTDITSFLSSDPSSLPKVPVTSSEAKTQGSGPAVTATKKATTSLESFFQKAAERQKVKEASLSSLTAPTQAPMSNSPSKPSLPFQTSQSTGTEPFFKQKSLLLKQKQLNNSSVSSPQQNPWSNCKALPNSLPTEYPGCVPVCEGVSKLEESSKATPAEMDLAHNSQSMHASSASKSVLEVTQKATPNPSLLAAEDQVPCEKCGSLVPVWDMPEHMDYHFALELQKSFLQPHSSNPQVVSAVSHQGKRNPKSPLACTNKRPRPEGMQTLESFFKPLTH
In short: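 Fluorescent replication assay: 50 nM final substrate added after a 15 min room-temperature compound preincubation with 10 nM enzyme. Signal taken at 0 min and again at 10 min.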
For `O=C(c1nc2ccc(Cl)cn2c1CN1CCCC1)N1CCc2ccccc2C1`, the Potency was active: 31.6 µM. For `CCCC1=C/C(=C/c2ccc(-c3ccccc3OC)o2)C(=O)O1`, the Potency was active: 25.1 µM. With `CC1=NN(c2ccc(N)cc2)C(=O)C1` the Potency was inconclusive: 56.2 µM [inhibitor, partial curve, poor fit]. `CCCCNC(=O)Cn1nc(N2CCN(c3ccccc3OC)CC2)ccc1=O` was tested, and the “activity change, negative = inhibition” value was inactive: -11.3%. For `Cc1nn2c(-c3cccc(NC(=O)c4ccco4)c3)nnc2c2ccccc12`, the Potency was inconclusive: 17.8 µM [inhibitor, partial curve]. `Cc1ccc(C(=O)OCC(=O)Nc2cccc(S(=O)(=O)NC3=NCCCCC3)c2)c(C)c1` was tested, and the Potency was inconclusive: 79.4 µM [inhibitor, partial curve, poor fit]. In the case of `CCCCC1=CC2=CC(=O)C(C)(OC(=O)C3CCCC3)C(=O)C2=CO1` (stereo unspecified), the Potency is reported as active: 39.8 µM. In the case of `COc1cccc(CNC(=O)Cn2c(=O)nc(-c3ccccc3F)c3cc(Cl)ccc32)c1`, the “activity change, negative = inhibition” value is reported as inactive: 0.801%. In the case of `CC1CN(C(=O)N2CCC(C(=O)NCc3cccs3)CC2)c2ccccc2O1` (stereo unspecified), the “activity change, negative = inhibition” value is reported as inactive: -18.7%. `Cc1ccccc1OCC(=O)OCC(=O)c1c[nH]c2ccccc12` was tested, and the “activity change, negative = inhibition” value was inactive: -23%. In the case of `Cc1ccc(/C=C/c2onc(C)c2S(=O)(=O)N2CCC(C(=O)N3CCN(c4cc(C)ccc4C)CC3)CC2)cc1`, the “activity change, negative = inhibition” value is reported as inactive: -2.47%. `CC(=O)N1CCc2c(sc3c2c(=O)n(Cc2ccccc2)c(=O)n3Cc2ccccc2Cl)C1` was tested, and the “activity change, negative = inhibition” value was inactive: -17.6%. For `Cc1ccc(Cl)cc1N1CCN(C(=O)COc2cc(=O)n(C)c3ccccc23)CC1`, the “activity change, negative = inhibition” value was inactive: -19.1%. With `C=C1CC2(OC1=O)c1ccccc1CCc1ccccc12` the Potency was inconclusive: 12.6 µM [inhibitor, partial curve, poor fit]. With `COCCn1c(SCC(=O)N2CCC(C)CC2)nc2c([nH]c3ccccc32)c1=O` the Potency was inconclusive: 39.8 µM [inhibitor, partial curve, poor fit]. With `O=[N+]([O-])c1c(Nc2cccc(O)c2)cc(Cl)c2nonc12` the Potency was active: 25.1 µM. For `CCOc1ccc(C(=O)c2oc3ccccc3c2NC(=O)c2cc(=O)c3ccc(C)cc3o2)cc1`, the “activity change, negative = inhibition” value was inactive: 0.24%. With `O=C(COC(=O)c1ccc([N+](=O)[O-])s1)Nc1ncc(C(F)(F)F)cc1Cl` the Potency was active: 35.5 µM. With `COc1ccc(-n2c(SCC(=O)Nc3ccc4c(c3)OCO4)nc3c([nH]c4ccccc43)c2=O)cc1` the “activity change, negative = inhibition” value was inactive: -7.87%. `Oc1oc(-c2cccc3ccccc23)nc1/C=N/c1nccs1` was tested, and the Potency was inconclusive: 15.8 µM [inhibitor, partial curve, poor fit]. In the case of `NC(=O)c1c(NC(=O)CSc2nnc(-c3ccco3)n2N)sc2c1CCCC2`, the Potency is reported as active: 12.6 µM.
